The record followed here is paper PMC9911399, “Two distinct binding modes provide the RNA-binding protein RbFox with extraordinary sequence specificity”.

Residue numbers refer to the chain shown, from its start. The list shows a part of the results.

Sequences and labels used below:
T1: RBFOX1 RRM RbFoxmut (Fox-RRM*) (Homo sapiens, UniProt Q9NWB1 109-208, R118D;E147R;N151S;E152T)
T1 sequence: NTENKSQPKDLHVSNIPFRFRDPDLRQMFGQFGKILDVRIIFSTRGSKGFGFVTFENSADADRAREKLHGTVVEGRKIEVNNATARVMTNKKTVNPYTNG

B1: GGACGUC (DNA:RNA)
RNA: GGGAGACCGGAAUUCAGAUUGUCCGGACGUCUUAAAUCCCGUCGUAGCCACCA
DNA 1: CAATCTGAATTCCGGTCTCCC
DNA 2: TGGTGGCTACGACGGGATT
B2: GCCCAUU (DNA:RNA)
RNA: B1 RNA with G26C, A27C, G29A, C31U
DNA 1: CAATCTGAATTCCGGTCTCCC
DNA 2: TGGTGGCTACGACGGGATT
B3: ACGACAU (DNA:RNA)
RNA: GGGAGACCGGAAUUCAGAUUGUCCACGACAUUUAAAUCCCGUCGUAGCCACCA
DNA 1: CAATCTGAATTCCGGTCTCCC
DNA 2: TGGTGGCTACGACGGGATT
B4: ACCACAC (DNA:RNA)
RNA: B3 RNA with G27C, U31C
DNA 1: CAATCTGAATTCCGGTCTCCC
DNA 2: TGGTGGCTACGACGGGATT
B5: UGGGUGC (DNA:RNA)
RNA: B1 RNA with G25U, A27G, C28G, G29U, U30G
DNA 1: CAATCTGAATTCCGGTCTCCC
DNA 2: TGGTGGCTACGACGGGATT
B6: AGAUACG (DNA:RNA)
RNA: B1 RNA with G25A, C28U, G29A, U30C, C31G
DNA 1: CAATCTGAATTCCGGTCTCCC
DNA 2: TGGTGGCTACGACGGGATT
B7: GGCACUG (DNA:RNA)
RNA: B1 RNA with A27C, C28A, G29C, C31G
DNA 1: CAATCTGAATTCCGGTCTCCC
DNA 2: TGGTGGCTACGACGGGATT
B8: AUCUGCC (DNA:RNA)
RNA: B1 RNA with G25A, G26U, A27C, C28U, U30C
DNA 1: CAATCTGAATTCCGGTCTCCC
DNA 2: TGGTGGCTACGACGGGATT
B9: ACAUUUG (DNA:RNA)
RNA: B3 RNA with G27A, A28U, C29U, A30U, U31G
DNA 1: CAATCTGAATTCCGGTCTCCC
DNA 2: TGGTGGCTACGACGGGATT

This assay has as its target T1, RBFOX1 RRM RbFoxmut (Fox-RRM*). The experiment in a line: EMSA; HiTS-Eq, 1 nM pool, 10 min; buffer printed only for the single-RNA assays: 10 mM Tris pH 7.5, 150 mM NaCl, 3.4 mM EDTA, 0.001% NP-40, 30 C. As to conditions: tags: His6 N-terminal (pET28a); label: 5' 32P. The method, boiled down: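 Purified RbFox RRM, wild type or mutant, was incubated for 10 min in 50 µL with 1 nM of a 5′-radiolabelled RNA pool carrying 7 randomized nucleotides, whose flanks were annealed to DNA oligonucleotides, over a series of increasing protein concentrations. Unbound RNA was resolved on 8% native PAGE, cut out, reverse-transcribed, barcoded by PCR and sequenced on an Illumina HiSeq 2500. Relative association constants were derived from changes in read counts for each RNA species versus the control reaction and normalised to the cognate motif.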
B1: the binding signal is 0.147 KA relative to UGCAUGU.

Consider B2, for which the binding signal is 0.0877 KA relative to UGCAUGU. Take B3: the binding signal was 0.0911 KA relative to UGCAUGU. As to B4, the binding signal is 0.104 KA relative to UGCAUGU. As for B5, the binding signal is 0.195 KA relative to UGCAUGU. The value for B6 was 0.123 KA relative to UGCAUGU; that for B7 was 0.109 KA relative to UGCAUGU; that for B8 was 0.191 KA relative to UGCAUGU. For B9, the binding signal was 0.0885 KA relative to UGCAUGU.
